Results from the supplement of paper PMC4967469.
A lower IC50 marks a more sensitive line; fits outside the tested doses are given as limits. AUC, from the same fit, is the share of area under the viability curve across the 256-fold dose range; it is 1 without any effect and falls as sensitivity rises. For some assays here: The top dose, if marked as inferred, was calculated from the reported fits.

Columns and labels:
Assay in all cases: Viability of human cancer cell lines after 72 h of drug (GDSC screen)
BMX-IN-1 (QL-XII-61) = compound: C=CC(=O)Nc1cc(-n2c(=O)ccc3cnc4ccc(-c5ccc(NS(C)(=O)=O)cc5)cc4c32)ccc1C [BMX-IN-1 (QL-XII-61)]; details: top dose 10 µM; top dose inferred
Description: (§1)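 Human cancer cell lines in 384-well plates, medium with 10% serum, drug for 72 h over a 256-fold dose range (nine 2-fold or five 4-fold steps up to the top dose). Adherent lines were fixed and stained with the nucleic acid dye Syto60, suspension lines read with resazurin; signal relative to control wells, capped at 0 and 100%. One two-parameter sigmoid per drug and line, fitted in a mixed model over all curves with the slope shared within a line.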

CCT018159 = compound: CCc1cc(-c2n[nH]c(C)c2-c2ccc3c(c2)OCCO3)c(O)cc1O [CCT018159]; details: top dose 10 µM; top dose inferred
Description: as §1

UNC1215 = compound: O=C(c1ccc(C(=O)N2CCC(N3CCCC3)CC2)c(Nc2ccccc2)c1)N1CCC(N2CCCC2)CC1 [UNC1215]; details: top dose 1 µM; top dose inferred
Description: as §1

VX-11e = compound: Cc1cnc(Nc2ccc(F)cc2Cl)nc1-c1c[nH]c(C(=O)N[C@H](CO)c2cccc(Cl)c2)c1 [VX-11e]; details: top dose 5.12 µM; top dose inferred
Description: as §1

Vismodegib = compound: CS(=O)(=O)c1ccc(C(=O)Nc2ccc(Cl)c(-c3ccccn3)c2)c(Cl)c1 [Vismodegib]; details: top dose 10 µM; top dose inferred
Description: as §1

OSI-027 = compound: COc1cccc2cc(-c3nc([C@H]4CC[C@H](C(=O)O)CC4)n4ncnc(N)c34)[nH]c12 [OSI-027]; details: top dose 20 µM
Description: as §1

17-AAG = compound: C=CCNC1=C2C[C@@H](C)C[C@H](OC)[C@H](O)[C@@H](C)/C=C(\C)[C@H](OC(N)=O)[C@@H](OC)/C=C\C=C(/C)C(=O)NC(=CC1=O)C2=O [17-AAG]; details: top dose 1 µM
Description: as §1

Doxorubicin = compound: COc1cccc2c1C(=O)c1c(O)c3c(c(O)c1C2=O)C[C@@](O)(C(=O)CO)C[C@@H]3O[C@H]1C[C@H](N)[C@H](O)[C@H](C)O1 [Doxorubicin]; details: top dose 1.024 µM
Description: as §1

TG101348 = compound: Cc1cnc(Nc2ccc(OCCN3CCCC3)cc2)nc1Nc1cccc(S(=O)(=O)NC(C)(C)C)c1 [TG101348]; details: top dose 10.24 µM
Description: as §1

BIX02189 = compound: CN(C)Cc1cccc(N=C(c2ccccc2)c2c(O)[nH]c3cc(C(=O)N(C)C)ccc23)c1 [BIX02189]; details: top dose 20 µM; top dose inferred
Description: as §1

Dimethyloxalylglycine = compound: COC(=O)CNC(=O)C(=O)OC [Dimethyloxalylglycine]; details: top dose 4000 µM; top dose inferred
Description: as §1

Cell Line	AUC (BMX-IN-1 (QL-XII-61))	IC50 (BMX-IN-1 (QL-XII-61))	AUC (CCT018159)	IC50 (CCT018159)	AUC (UNC1215)	IC50 (UNC1215)	AUC (VX-11e)	IC50 (VX-11e)	AUC (Vismodegib)	IC50 (Vismodegib)	AUC (OSI-027)	IC50 (OSI-027)	AUC (17-AAG)	IC50 (17-AAG)	AUC (Doxorubicin)	IC50 (Doxorubicin)	AUC (TG101348)	IC50 (TG101348)	AUC (BIX02189)	IC50 (BIX02189)	AUC (Dimethyloxalylglycine)	IC50 (Dimethyloxalylglycine)
DG-75 (Burkitt lymphoma, suspension)	0.919	> 10 µM	0.826	6.14 µM	0.984	> 1 µM	0.982	> 5.12 µM	0.928	> 10 µM	0.735	5.92 µM	0.809	0.529 µM	0.852	0.808 µM	0.863	9.02 µM	0.943	> 20 µM	0.632	581 µM
DMS-114 (small cell lung carcinoma, adherent)	0.966	> 10 µM	0.938	> 10 µM	0.983	> 1 µM	0.965	> 5.12 µM	0.985	> 10 µM	0.233	0.183 µM	0.934	> 1 µM	0.772	0.454 µM	0.854	10.1 µM	0.939	> 20 µM	0.813	2580 µM
DND-41 (T-cell leukaemia, suspension)	0.848	6.12 µM	0.842	5.85 µM	0.987	> 1 µM	0.756	1.56 µM	0.961	> 10 µM	0.342	0.483 µM	0.962	> 1 µM	0.49	0.0603 µM	0.389	0.331 µM	0.735	5.3 µM	0.269	60.6 µM
DOK (head and neck, adherent)	0.954	> 10 µM	0.859	> 10 µM	0.972	> 1 µM	0.964	> 5.12 µM	0.823	> 10 µM	0.835	> 20 µM	0.371	0.0231 µM	0.839	> 1.02 µM	0.81	9.17 µM	0.957	> 20 µM	0.903	> 4000 µM
Daudi (Burkitt lymphoma, suspension)	0.86	6.72 µM	0.904	> 10 µM	0.988	> 1 µM	0.972	> 5.12 µM	0.989	> 10 µM	0.095	< 0.0781 µM	0.983	> 1 µM	0.505	0.0659 µM	0.741	2.8 µM	0.892	18.3 µM	0.295	72.4 µM
DoTc2-4510 (cervix, adherent)	0.87	8.53 µM	0.881	9.51 µM	0.986	> 1 µM	0.968	> 5.12 µM	0.975	> 10 µM	0.922	> 20 µM	0.723	0.258 µM	0.415	0.038 µM	0.936	> 10.2 µM	0.982	> 20 µM	0.427	160 µM
EC-GI-10 (oesophagus, adherent)	0.981	> 10 µM	0.796	4.64 µM	0.973	> 1 µM	0.973	> 5.12 µM	0.987	> 10 µM	0.984	> 20 µM	0.871	0.929 µM	0.965	> 1.02 µM	0.989	> 10.2 µM	0.972	> 20 µM	0.929	> 4000 µM
EFM-192A (breast, adherent)	0.885	> 10 µM	0.945	> 10 µM	0.984	> 1 µM	0.963	> 5.12 µM	0.979	> 10 µM	0.915	> 20 µM	0.526	0.0744 µM	0.407	0.0346 µM	0.985	> 10.2 µM	0.967	> 20 µM	0.337	83.2 µM
ES1 (Ewing sarcoma, adherent)	0.975	> 10 µM	0.923	> 10 µM	0.985	> 1 µM	0.954	> 5.12 µM	0.972	> 10 µM	0.158	0.114 µM	0.931	> 1 µM	0.274	0.0147 µM	0.561	0.934 µM	0.894	> 20 µM	0.729	1110 µM
ES4 (Ewing sarcoma, adherent)	0.81	6.25 µM	0.856	9.98 µM	0.98	> 1 µM	0.958	> 5.12 µM	0.975	> 10 µM	0.301	0.314 µM	0.92	> 1 µM	0.203	0.00722 µM	0.591	1.18 µM	0.805	11.9 µM	0.69	931 µM
ES5 (Ewing sarcoma, adherent)	0.946	> 10 µM	0.9	> 10 µM	0.979	> 1 µM	0.914	> 5.12 µM	0.946	> 10 µM	0.164	0.0967 µM	0.895	> 1 µM	0.839	0.853 µM	0.503	0.654 µM	0.883	> 20 µM	0.637	634 µM
ES6 (Ewing sarcoma, adherent)	0.828	8.23 µM	0.902	> 10 µM	0.978	> 1 µM	0.972	> 5.12 µM	0.982	> 10 µM	0.717	6.03 µM	0.928	> 1 µM	0.656	0.194 µM	0.869	> 10.2 µM	0.94	> 20 µM	0.736	1410 µM
ES7 (Ewing sarcoma, adherent)	0.872	9.96 µM	0.874	> 10 µM	0.981	> 1 µM	0.833	3.44 µM	0.944	> 10 µM	0.218	0.182 µM	0.93	> 1 µM	0.384	0.0303 µM	0.577	1.05 µM	0.816	11.4 µM	0.593	453 µM
ES8 (Ewing sarcoma, adherent)	0.949	> 10 µM	0.88	9.02 µM	0.986	> 1 µM	0.915	> 5.12 µM	0.978	> 10 µM	0.167	0.134 µM	0.599	0.114 µM	0.352	0.0258 µM	0.641	1.52 µM	0.848	13.2 µM	0.671	717 µM
ES-2 (ovary, adherent)	0.99	> 10 µM	0.92	> 10 µM	0.99	> 1 µM	0.855	3.33 µM	0.966	> 10 µM	0.628	2.69 µM	0.858	0.668 µM	0.842	0.594 µM	0.905	> 10.2 µM	0.903	> 20 µM	0.887	3530 µM
ESS-1 (endometrium, adherent)	0.911	> 10 µM	0.937	> 10 µM	0.987	> 1 µM	0.989	> 5.12 µM	0.99	> 10 µM	0.85	12.9 µM	0.696	0.208 µM	0.222	0.011 µM	0.743	2.91 µM	0.99	> 20 µM	0.436	171 µM
ETK-1 (biliary tract, adherent)	0.904	> 10 µM	0.911	> 10 µM	0.981	> 1 µM	0.935	> 5.12 µM	0.969	> 10 µM	0.722	5.85 µM	0.583	0.109 µM	0.554	0.0915 µM	0.902	> 10.2 µM	0.941	> 20 µM	0.615	543 µM
EW-1 (Ewing sarcoma, semi-adherent)	0.972	> 10 µM	0.978	> 10 µM	0.987	> 1 µM	0.917	> 5.12 µM	0.985	> 10 µM	0.151	0.118 µM	0.98	> 1 µM	0.502	0.0647 µM	0.503	0.652 µM	0.884	18.7 µM	0.742	1150 µM
EW-7 (Ewing sarcoma, semi-adherent)	0.845	5.95 µM	0.989	> 10 µM	0.986	> 1 µM	0.959	> 5.12 µM	0.971	> 10 µM	0.2	0.187 µM	0.973	> 1 µM	0.388	0.0329 µM	0.78	3.69 µM	0.851	12.5 µM	0.667	684 µM
EW-11 (Ewing sarcoma, adherent)	0.978	> 10 µM	0.812	7.39 µM	0.974	> 1 µM	0.98	> 5.12 µM	0.923	> 10 µM	0.21	0.132 µM	0.976	> 1 µM	0.727	0.346 µM	0.592	1.23 µM	0.881	> 20 µM	0.693	1030 µM
EW-16 (Ewing sarcoma, adherent)	0.873	> 10 µM	0.915	> 10 µM	0.981	> 1 µM	0.972	> 5.12 µM	0.933	> 10 µM	0.303	0.34 µM	0.861	0.913 µM	0.14	0.00444 µM	0.793	4.93 µM	0.913	> 20 µM	0.571	395 µM
EW-24 (Ewing sarcoma, semi-adherent)	0.908	> 10 µM	0.989	> 10 µM	0.989	> 1 µM	0.983	> 5.12 µM	0.974	> 10 µM	0.993	> 20 µM	0.984	> 1 µM	0.892	0.946 µM	0.89	9.29 µM	0.983	> 20 µM	0.867	2900 µM
EoL-1-cell (haematopoietic neoplasm, suspension)	0.642	1.46 µM	0.846	6.07 µM	0.972	> 1 µM	0.758	1.59 µM	0.89	9.12 µM	0.501	1.26 µM	0.842	0.585 µM	0.383	0.0318 µM	0.523	0.732 µM	0.252	0.269 µM	0.398	136 µM
